Results taken from PubChem BioAssay AID1645882 (National Center for Advancing Translational Sciences (NCATS), 2021).
Hit rate of the full screen: of about 16,000 compounds, about 120 (0.75%) were called active. Not shown: some 4% with an inconclusive outcome. The call rests on the fitted dose curve; in most records, active means well fitted inhibition curve with a large enough effect; inconclusive means small, poorly fitted or top-dose-only effect; inactive means no such curve, though single readings can be large or run the other way. The list shows a part of the results. *1 amine or outer side, *2 acyl side, *3 side chain or, on linkers, in order; H or OH if unused. Where a SMILES comes first, the peptide text is derived from it. Bridges are numbered along the chain shown (N, C = ends). Roman numbers before positions name the chains, in order. [ ]: non-standard residue; d: D form. Actinocin(9to1) = Cc1c2oc3c(C)ccc(C(=O)[*:1])c3nc-2c(C(=O)[*:2])c(N)c1=O; NMeV = CN[CH](C(=O)O)C(C)C; Sar = CNCC(=O)O

target: Rap guanine nucleotide exchange factor 3 (Homo sapiens) (UniProt O95398); test: Validation qHTS for antagonist of cAMP-regulated guanine nucleotide exchange factor 3 (EPAC1); conditions: EPAC1 Rap1B-BODIPY-GDP exchange, fluorescence; series mostly up to 150 µM; activity change, negative = inhibition: at the top concentration; further: nearly all actives have a fitted effect of over 75% in size
Chain of UniProt O95398 (O95398 whole entry, looked up): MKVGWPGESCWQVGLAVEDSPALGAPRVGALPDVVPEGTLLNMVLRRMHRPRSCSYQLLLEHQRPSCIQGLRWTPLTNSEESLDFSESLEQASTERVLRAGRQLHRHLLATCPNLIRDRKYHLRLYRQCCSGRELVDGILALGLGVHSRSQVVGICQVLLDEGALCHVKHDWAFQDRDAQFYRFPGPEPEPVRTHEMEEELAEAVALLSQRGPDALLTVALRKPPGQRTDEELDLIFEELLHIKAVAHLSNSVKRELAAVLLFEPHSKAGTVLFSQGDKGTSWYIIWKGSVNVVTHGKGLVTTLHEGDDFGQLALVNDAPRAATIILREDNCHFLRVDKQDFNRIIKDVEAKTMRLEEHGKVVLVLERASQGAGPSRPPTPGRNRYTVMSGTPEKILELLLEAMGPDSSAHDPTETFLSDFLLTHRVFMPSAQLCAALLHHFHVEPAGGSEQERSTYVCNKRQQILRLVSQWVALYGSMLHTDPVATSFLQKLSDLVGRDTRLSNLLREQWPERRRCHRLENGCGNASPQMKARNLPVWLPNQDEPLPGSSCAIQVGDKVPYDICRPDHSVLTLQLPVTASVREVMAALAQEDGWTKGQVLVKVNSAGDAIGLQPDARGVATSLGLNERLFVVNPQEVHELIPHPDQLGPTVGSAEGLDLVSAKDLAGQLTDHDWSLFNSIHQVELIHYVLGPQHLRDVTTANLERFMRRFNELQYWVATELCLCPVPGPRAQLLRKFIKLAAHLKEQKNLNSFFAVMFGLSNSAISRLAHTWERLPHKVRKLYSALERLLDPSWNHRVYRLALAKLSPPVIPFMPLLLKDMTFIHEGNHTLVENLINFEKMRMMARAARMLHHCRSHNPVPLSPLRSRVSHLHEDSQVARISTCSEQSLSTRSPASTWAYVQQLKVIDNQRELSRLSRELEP
How it was run: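 EPAC1 (100 nM) mixed with 250 nM RAP1B-BODIPY-GDP and 50 uM GDP; compounds in concentration series, 5 min at room temperature. Fluorescence (ex 480/em 540 nm) read every 5 min for 30 min; normalized to ATA control and DMSO.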

Activity change, negative = inhibition, inactive:
COc1ccccc1CCn1c(=O)c(-c2ccc(F)cc2)nc2cncnc21 9.44%
CC(CC=O)CCCC(C)(C)O (stereo not drawn) 18.9%
COc1cc(-c2nc(C)cnc2C)cc2c1OCCN(C(=O)Cn1nc(-c3ccccc3)c3ccccc3c1=O)C2 16.9%
CCNc1ncc2nc(-c3ccccc3)c(=O)n(CCOC)c2n1 3.09%
COCC(=O)N1CCC2(CCN(Cc3ccc(C#N)cc3)CC2)CC1 10.3%
Cc1ccc(S(=O)(=O)NC(=O)NC2CCCC2)cc1 14.1%
O=C(N[C@@H](Cc1ccccc1)C(=O)CCl)OCc1ccccc1 0% [at 75.8 µM]
COc1ccc2c(c1)[C@]1(C)CCC(=O)C[C@H]1CC2 -10.2%
COc1ccccc1/C=C\C(=O)OC[C@@H]1CCCN2CCCC[C@H]12 3.69%
Cc1cc2c(cc1Cl)N(C(=O)Nc1ccc(Oc3cccnc3C)nc1)CC2 -0.589% [at 75.8 µM]
O=C(c1cccnc1)C1CCCN(Cc2ccc3c(c2)CN(C(=O)c2ccc4[nH]ccc4c2)CCO3)C1 (stereo not drawn) 9.24%
Cc1scc2c1N(C(=O)CN1CCN(C)CC1)c1ccccc1NC2=O
O=c1c(O)c(-c2ccc(O)c(O)c2)oc2c(OC[C@@H]3O[C@@H](O)[C@@H](O)[C@H](O)[C@H]3O)c(O)cc(O)c12 -6.8%
COCCNc1ncnc2ccc(-c3ccccc3C)cc12 20.3%
c1ccc(C2CN3CCSC3=N2)cc1 (stereo not drawn)
COc1cccc(-c2cc(=O)c3cc(O)ccc3o2)c1 16.5%
COC(=O)c1c(OCc2cccnc2)cc(=O)n2c1CCN(C(=O)c1ccc(OC)c(F)c1)CC2 1.96%
COCC(=O)Nc1cc(C(=O)N2CCCC(C(C)=O)C2)cc2nc(-c3ccccc3)n(C)c12 (stereo not drawn) -5.97%
COc1cc2cc3c4cc(OC)c(OC)cc4cc[n+]3c(C)c2cc1OC -7.16%
Cc1c2oc3c(C)ccc(C(=O)NC4C(=O)NC(C(C)C)C(=O)N5CCCC5C(=O)N(C)CC(=O)N(C)C(C(C)C)C(=O)OC4C)c3nc-2c(C(=O)NC2C(=O)NC(C(C)C)C(=O)N3CCCC3C(=O)N(C)CC(=O)N(C)C(C(C)C)C(=O)OC2C)c(N)c1=O (stereo not drawn) (I: TVP[Sar][NMeV] / II: TVP[Sar][NMeV]; ester I:1-I:C, II:1-II:C; linker I:N-II:N via Actinocin(9to1); configuration not given here) 1.27% [at 75.8 µM]
CC(COc1ccc(/C=C/c2ccccc2)cc1)[N+](C)(C)C (stereo not drawn) 0.993% [at 75.8 µM]
O=c1cnc2cncnc2n1Cc1ccccc1Cl -10.8%
CN(C)c1ccc(/C=C/N2C=CCc3c2ccc2ccccc32)cc1 -21.6%
O=c1c(-c2cc(F)cc(F)c2)nc2cnc(N3CCNCC3)nc2n1CCc1ccccc1 0.84%
C#CCCCCCCCCCCCC(=O)CC(O)COC(C)=O (stereo not drawn) 15.6%
COc1ccc(C(=O)N2CCC3(CC2)CN(c2cccc(-c4ccccc4)c2)C3)cc1 -6.99%
C[C@H]1[C@H](C)CC[C@]2(C(=O)O)CC[C@]3(C)C(=CCC4[C@@]5(C)C[C@@H](O)[C@H](O)[C@@](C)(CO)[C@@H]5CC[C@]43C)[C@H]12 (stereo partly drawn) -11.5%
O=C(Oc1ccccc1)N1CCC2(CCCN(c3ccc(-c4ccccc4)cc3)C2)CC1 2.81%
CCC1CN(CCNC(=O)c2ccc3c(c2)OCO3)Cc2cc(OC)ccc2O1 (stereo not drawn) -7.49%
Nc1cnccn1 15.9%
O=C1CCN(Cc2ccccc2)S(=O)(=O)c2ccc(F)cc21 10.1%
CC[N+]1(C)C2CCC1CC(OC(=O)[C@H]1CCC(C(=O)OC3CC4CCC(C3)[N+]4(C)CC)(c3ccccc3)c3ccccc31)C2 (stereo partly drawn) 14.3%
Cc1cc2c(c(-c3ccc(Cl)cc3)c1)OC(CNC(=O)CCC(=O)N(C)C)C2 (stereo not drawn) -7.43%
COc1ccc(NC(=O)/C=C/c2ccc(Cl)cc2)cc1 -5.73% [at 75.8 µM]
CCCCCCCCCCCCCCCC(=O)OC[C@@H](COP(=O)([O-])OCC[N+](C)(C)C)OC(=O)CCCCCCCCCCCCCCC 20.1%
CNC(=O)c1cc2c(cn1)[nH]c1ccccc12
Cc1cc(=O)oc2cc(O)ccc12 12.9% [at 75.8 µM]
COC(=O)C1CCCCN1Cc1ccc2c(c1)CN(C(=O)c1ccc(F)cc1)CCO2 (stereo not drawn) 17.7%
COc1ncc2nc(C)c(=O)n(C3CC3)c2n1 1.4%
CCC1CN(CCNC(=O)c2cccc(C)n2)Cc2cc(OC)ccc2O1 (stereo not drawn) 8.12%
Cn1cc(-c2nc3cncnc3n(-c3ccccc3)c2=O)c2ccccc21 23%
CCC(COC)NC(=O)c1cnn(-c2ncc3c(n2)-c2ccccc2CCC3)c1C (stereo not drawn) 2.87%
Cc1nc2ccccc2n1Cc1ccc(Cl)cc1 13.2%
COc1ccccc1-c1ccc2ncnc(Nc3ccccc3)c2c1 -13.3%
CN(C)c1ccc(-c2cncnc2N(C)Cc2ccco2)cc1 -4.56%
Cc1cn2c(=O)c3ccccc3nc2n2c(=O)c3ccccc3nc12 11.9%
Cc1cc(CNC(=O)c2cnn(-c3nccc(-c4cc(C)sc4C)n3)c2C2CC2)on1 7.13%
CSc1nc(NC2CCCC2)c([N+](=O)[O-])c(NC2CCCC2)n1 -2.9%
O=C(O)c1cccs1 19.9%
CC(=O)C[C@H]1c2cc(C(F)(F)F)ccc2S(=O)(=O)N1C1CCCC1 9.95%
CCc1nc2cc(C(=O)NC3CCOC(C)(C)C3)cc(NC(=O)c3ccccc3OC)c2n1C (stereo not drawn) 14.3%
CC(=O)N1CCC2(CC1)CN(c1cccc(-c3ccccc3)c1)C2 4.97%
CCCN[C@H]1CCc2nc(N)sc2C1 13.1%
COc1ccc2c(c1)OC/C(=C/c1ccc(O)c(O)c1)C2=O 13.8%
C[n+]1ccc(C(c2c[nH]c3ccccc23)c2cc[n+](C)c3ccccc23)c2ccccc21 -13.5%
CCC(=O)N1CCN(C(=O)c2ccccc2)CC1 19.9% [at 75.8 µM]
CN(C)Cc1ccccc1-c1nccc(N(C)C)n1 26%
CC(=O)c1ccc(S(=O)(=O)NC(=O)NC2CCCCC2)cc1
CN(Cc1ccco1)c1ncnc2ccc(-c3cccc(C#N)c3)cc12 1.15%
COCCn1c(=O)c(-c2cccs2)nc2cnc(OC)nc21 3.61%
CN(CCO)CC(O)Cn1cnc2c1c(=O)n(C)c(=O)n2C (stereo not drawn) (tested in a mixture with another compound) -0.556%
c1ccc(-c2cn(CC3CCCCC3)nn2)cc1 9.63%
Oc1ccc(-c2cnccn2)cc1CN1CCN(C2CCCCC2)CC1 23%
Cc1cnc(CNc2cc(-c3ccc(N(C)C)cc3)ncn2)cn1 23.4%
CC(=O)Nc1ccc(-c2nc3ccc(Cl)cc3[nH]2)cc1 7.35%
CN[C@H](CC(C)C)C(=O)N[C@H]1C(=O)N[C@@H](CC(N)=O)C(=O)N[C@H]2C(=O)N[C@H]3C(=O)N[C@H](C(=O)N[C@@H](C(=O)O)c4cc(O)cc(O)c4-c4cc3ccc4O)[C@H](O)c3ccc(c(Cl)c3)Oc3cc2cc(c3O[C@@H]2O[C@H](CO)[C@@H](O)[C@H](O)[C@H]2O[C@H]2C[C@](C)(N)C(O)[C@H](C)O2)Oc2ccc(cc2Cl)[C@H]1O (stereo partly drawn)
CCCCC[C@H](O)/C=C/[C@@H]1[C@@H](C/C=C\CCCC(=O)O)[C@@H](O)C[C@H]1O
CCSC(=N)N
CCC(N)(C(=O)O)c1ccc(C(=O)O)cc1 (stereo not drawn) 7.58%
CNc1ncnc2c1ncn2[C@H]1C[C@H](OP(=O)(O)O)[C@@H](COP(=O)(O)O)O1 -9.79% [at 75.8 µM]
COc1ncc2nc(CCc3ccccc3)c(=O)n(CCC#N)c2n1 7.32%
CC(COc1ccccc1)N(CCCl)Cc1ccccc1 (stereo not drawn)
Nc1ncn([C@@H]2O[C@H](CO)[C@@H](O)[C@H]2O)c(=O)n1
CCCNC(C)C(=O)Nc1ccccc1C (stereo not drawn)
COc1ccc(CN(CCN(C)C)c2ccccn2)cc1
COc1cc(/C=C/C(=O)N2CCN(CC(=O)N3CCCC3)CC2)cc(OC)c1OC 2.5%
CCCCCCCCCCCCCCCCCCOP(=O)([O-])OC1CC[N+](C)(C)CC1 21.7% [at 75.8 µM]
Nc1nc(Cl)nc2c1ncn2[C@@H]1O[C@H](COP(=O)(O)OP(=O)(O)OP(=O)(O)O)[C@@H](O)[C@H]1O -3.27% [at 75.8 µM]
CC(=O)Oc1cccc2c1C(=O)c1c(OC(C)=O)cc(C(=O)O)cc1C2=O -15.6%
C#C[C@]1(O)CC[C@@H]2[C@H]3CCC4=CC(=O)CC[C@H]4[C@H]3C(=C)C[C@@]21CC 16%
Cc1ncc(CSSCc2cnc(C)c(O)c2CO)c(CO)c1O 26.2%
N#Cc1cccc(-c2cncnc2NCc2ccccc2)c1 -0.561%
C[C@H](CCC(=O)O)[C@H]1CC[C@H]2[C@H]3C(C[C@H](O)[C@]12C)[C@@]1(C)CC[C@@H](O)C[C@H]1C[C@H]3O (stereo partly drawn) 2.13%
C=C[C@@H]1c2ccccc2N(S(=O)(=O)c2ccc(C)cc2)[C@H](c2ccc(C(F)(F)F)cc2)C1(C#N)C#N -1.82%
CCC1(C2CCN(Cc3cccc(Cl)c3)CC2)NC(=O)N(CC2COc3ccccc3O2)C1=O (stereo not drawn) -16.4%
NCCn1c(=O)c(CCc2ccccc2)nc2cncnc21 -4.9%
COc1ccccc1CN1CCCC2(CCN(C(=O)c3cnccn3)CC2)C1 26.7%
O=C(NC1CCC(=O)N(CCSc2ccccc2)CC1)OCc1ccccc1 (stereo not drawn) -3.99%
CN1CCN(c2ncc3nc(-c4ccc(Cl)cc4)c(=O)n(Cc4ccc(F)cc4)c3n2)CC1 1.27%
CCCCC(C)(O)C/C=C/[C@H]1[C@H](O)CC(=O)[C@@H]1CCCCCCC(=O)OC (stereo partly drawn) 20.4%
CCC1(O)CC2CN(CCc3c([nH]c4ccccc34)[C@@](C(=O)OC)(c3cc4c(cc3OC)N(C)C3[C@]45CCN4CC=C[C@@](CC)([C@@H](OC(C)=O)[C@]3(O)C(=O)OC)[C@H]45)C2)C1 (stereo partly drawn) -3.13% [at 75.8 µM]
Cc1ccc2cc(CNCc3cccc4ccccc34)c(N3CCC(O)CC3)nc2c1 6.71%
CCCCC/C=C\C\C=C/C=C/C=C/[C@@H](SCC(NC(C)=O)C(=O)O)[C@@H](O)CCCC(=O)O (stereo partly drawn) 18.2% [at 1.57 µM]
